Measurements as given in ChEMBL document CHEMBL4888484, “Replenishing the malaria drug discovery pipeline: Screening and hit evaluation of the MMV Hit Generation Library 1 (HGL1) against asexual blood stage Plasmodium falciparum ,using a nano luciferase reporter read-out” (2022).
The whole screen tested about 150,000 compounds, of which about 540 (0.36%) showed an effect of 50% or more. This is one part of the list.

System: Plasmodium falciparum
Test: Primary screen in NF54 nanoGlo assay, in single point, at 2uM, 72h; a lower Z score goes with more inhibition
Format: functional, Erythrocyte
Settings: timepoint 72 hour

Row | SMILES | % Inhibition [%] | Z score
1 | OC1(CN2CCC(C(F)(F)F)(C(F)(F)F)C2)CCOCC1 | 3 | -0.33
2 | CCC[C@H]1C(=O)NCCN1C(=O)c1cnn(CC2CCOCC2)c1C | 37 | -0.98
3 | CCn1c(CN2CCN(c3ncccn3)CC2)nc2cc(F)ccc21 | -16 | 2.05
4 | CN(Cc1csc(-c2ccccn2)n1)C1C2CCOC2C1(C)C (centres undefined) | -14 | 1.51
5 | c1cc2c(c(-c3nc(C4CCC4)n[nH]3)c1)OCC2 | -14 | 2.71
6 | O=C(CC1CCCC1)Nc1ccccc1-c1nc2ccccc2s1 | -2 | 0.28
7 | CCN1C[C@H](CN(C)C(=O)c2ccc3c(c2)CCO3)Oc2ccccc21 | -15 | 1.89
8 | C[C@H](NC(=O)N1CCN(C)CCN(C)CC1)c1cccc(O)c1 | -10 | 1.28
9 | O=C(NC1CC1)C1CCN(c2nc3ccc(-c4cccnc4)nc3s2)CC1 | -14 | 1.53
10 | CCOCCOCc1cccc(NC(=O)c2cncc(O)c2)c1C | 6 | -1.04
11 | FC(F)(F)c1cccc(N2CCN(c3ncnc4c3nc3n4CCCCC3)CC2)c1 | 0 | 0.03
12 | CC(=O)NC1CCN(C(=O)NCC2(C)OCCc3sccc32)C1 (centres undefined) | -3 | 0.53
13 | CC(C)c1cc([C@@H]2CCCN2C(=O)c2cnn3c(C(F)(F)F)cc(-c4ccccc4)nc23)no1 | -13 | 1.81
14 | O=S1(=O)CCN(c2cc(NS(=O)(=O)c3cccc(-n4cnnn4)c3)ccc2F)CC1 | -14 | 2.18
15 | CCOC(=O)Oc1c(OC)cc(C(=O)Nc2ccc3c(c2)sc(=O)n3C)cc1OC | 33 | -4.43
16 | O=C1C[C@H](c2ccc3nccnc3c2)c2cn(Cc3ccccc3)c3cccc(c23)N1 | -16 | 2.65
17 | Cc1ccc(OCC[C@H]2CCN(C(=O)CCn3nc(C)cc3C)C2)cc1 | -7 | 1.33
18 | CC1(C)C[C@H](CC(=O)Nc2ccccn2)C(=O)O1 | 3 | -0.41
19 | COc1cc(C(=O)NC2CCN(C)C(C)C2)cc(C)n1 (centres undefined) | -5 | 0.78
20 | O=C(NCc1ccccc1F)C1CN(c2nc3ccccc3s2)C1 | -4 | 0.64
21 | CN(C[C@H]1CCCCO1)c1cc(NC2CC2)nc(N)n1 | -5 | 0.75

Row | SMILES | % Inhibition [%] | Z score
22 | COc1cc(CN2CCCC[C@H]2c2ncc[nH]2)cc(Cl)c1OCC(N)=O | -1 | 0.21
23 | O=C(CC[C@H]1CCCO1)Nc1nc(-c2ccc3c(c2)OCO3)cs1 | -1 | 0.21
24 | Cc1ccc(CNC(=O)[C@H]2CCc3cncn3C2)c(=O)n1C | -3 | 0.45
25 | CCC(C)(C)NC(=O)CN1CCCC(C)(C)CC1 | -10 | 1.21
26 | COCC(=O)N1CCC[C@H]1c1nn(C)c(=O)n1Cc1ccccc1 | -4 | 0.55
27 | CN(C1C=CCCC1)C(CC(N)=O)c1ccccc1 (centres undefined) | 1 | -0.25
28 | Cc1csc(N(CC(F)(F)F)C(=O)c2cn(C(C)(C)C)nn2)n1 | 3 | -0.55
29 | CCn1cc(CNC(=O)c2cnc(-c3cccnc3)nc2)cn1 | -10 | 1.45
30 | CC(C)(C)OC(=O)NC1CC(NCC(=O)NCC2CC2)C1(C)C (centres undefined) | 0 | 0.05
31 | CS(=O)(=O)N1CCC2(CC1)C[C@@H]2NC(=O)c1ccncc1 | -12 | 1.44
32 | c1cc(COc2ccc3c(c2)OCO3)no1 | 27 | -3.08
33 | O=C(NCCC1=CCCN(Cc2c[nH]cn2)C1)Nc1ccccc1 | -6 | 0.89
34 | CC1CCCCN1C(=O)C1CCCN(S(=O)(=O)c2ccc3c(c2)NC(=O)CO3)C1 (centres undefined) | -3 | 0.52
35 | COC[C@H]1CCCN(C(=O)CC(C)(C)C#N)CC1 | -5 | 0.91
36 | N#C[C@@H](NC(=O)c1cc2n(n1)CCCO2)c1ccc(OC(F)(F)F)cc1 | -17 | 1.95
37 | CCOc1ccc(C(=O)Nc2cc(C(F)(F)F)ccc2Cl)nn1 | -8 | 0.87
38 | COc1cccc(CN2CCCn3cccc3[C@H]2c2ccc(C)c(C)c2)c1OC | -5 | 1.01
39 | CCOC(=O)C1CCN(C(=O)c2cn3c(n2)CC[C@H](c2cc(C(F)(F)F)cc(C(F)(F)F)c2)C3)CC1 | -6 | 0.97
40 | COc1ncc(NC(=O)c2ccco2)c(N2CCCC2)n1 | 12 | -2.18
41 | O=C(CN1C(=O)NC2(CCCC2)C1=O)N1CCO[C@H](c2ccccc2)C1 | -9 | 1.24
42 | COC(=O)CNc1cccc(C(N)=O)c1C | -1 | 0.17
